Laboratory results published in patent publication US20230416345A1, “NEW TYPE II COLLAGEN BINDING PROTEINS” (Navigo Proteins GmbH, priority 2020, published 2023).

Legend:
[1] = Soluble expression in Escherichia coli BL21(DE3); type: physicochemical; details: expression in E. coli BL21(DE3)
Experimental: Variants with affinity tag were expressed in Escherichia coli BL21(DE3) using a low copy plasmid system under regulation of a T7 promoter. Proteins were produced in soluble form after induction by lactose included in the medium (autoinduction medium). BL21 (DE3) competent cells were transformed with the expression plasmid, spread onto selective agar plates (kanamycin) and incubated overnight at 37° C. Precultures were inoculated from single colony in 3 ml 2×YT medium supplemented with 50 μg/ml kanamycin and cultured for 6 hours at 37° C. at 200 rpm in a conventional orbital shaker in culture tubes. […] Cultures were transferred to an orbital shaker and incubated at 30° C. and 200 rpm. Recombinant protein expression was induced by metabolizing glucose and subsequently allowing lactose to enter the cells. Cells were grown overnight for approx. 17 hours to reach a final OD600 of about 2-4. Before the harvest, the OD600 was measured, samples adjusted to 0.6/OD600 were withdrawn, pelleted and frozen at −20° C. To collect biomass cells were centrifuged at 12000×g for 15 min at 22° C. Pellets were weighed (wet weight). Cells were stored at −20° C. before processing.
Proteins with affinity tag were purified by affinity chromatography and size exclusion. After affinity chromatography purification using Strep-Tactin Superflow high capacity cartridges (IBA Lifesciences) a size exclusion chromatography (SEC) was performed using an Äkta system and a Superdex™ 200 HiLoad 16/600 column (Cytiva). Fused variants with Aflibercept were purified via MabSelect SuRe (Cytiva) affinity chromatography followed by a size exclusion chromatography (SEC) using an Äkta system and a Superdex™ 200 HiLoad 16/600 column (Cytiva). All chromatography processing steps were carried out on AKTA systems using matrices from Cytiva. Homogenous species of all purified ligands were obtained; no aggregation was detected. Following SOS-PAGE analysis positive fractions were pooled and their protein concentrations were measured. Further analysis included SOS-PAGE, SE-HPLC and RP-HPLC. Protein concentrations were determined by absorbance measurement at 280 nm using the molar absorbent coefficient. Reversed phase chromatography (RP-HPLC) was performed using a Dionex HPLC system and a PLRP-S (5 μm, 300 Å) column (Agilent). Analytic size exclusion chromatography (SE-HPLC) was performed using a Dionex HPLC system and a Superdex200 increase 5/150 GL (Cytiva). Binding of Collagen II was evaluated by SPR measurements using a Biacore 3000 system. Purified Collagen II was obtained from Chondrex.inc and VEGF-165 was obtained from Millipore. Targets were immobilized on a CM5-Sensor via NHS/EDC chemistry (immobilization level ˜1000 RU). Binding molecules were injected at different concentration and affinity was calculated by langmuir 1:1 binding model.

[2] = molecular target: T1, recombinant human collagen type II (h Col II) (Homo sapiens, UniProt P02458); test: KD-determination by ELISA vs human collagen type II; type: binding
T1 construct: purchased Chondrex CHX-20051
Experimental: (§1) High binding plates (Greiner, 781061) were immobilized with 2.5 μg/ml recombinant human collagen type II (h Col II, Chondrex, CHX-20051), rabbit collagen type II (rbCol II, prepared from rabbit eyes), porcine collagen type II (p Col II, prepared from porcine eyes), human collagen type I, (h Col I, Sigma, C5483-1MG), human collagen type V (h Col V, Abcam, ab7537), human collagen type III (h Col Ill, Abcam, ab7535) and 67B89 (domain of fibronectin, produced in E. coli) respectively over night at 4° C. ELISA-plates were washed 3 times with PBST (PBS+ 0.1% Tween) and blocked with 3% BSA/0.5% Tween/PBS 2 h at RT. After washing with PBST, dilution series of 1.1 μM to 7×10^−4 nM of dimers (CID 211999, CID 212000), dilution series of 100 nM to 7×10^−6 nM of tetramers (CID 212001 and CID 212704) and dilution series of 10 μM to 2 nM of dimer (CID 212705) were incubated on ELISA-plates 1 h at rt. Plates were washed with PBST and incubated with biotinylated anti-StrepTag-ab (Antikörper-online, ABIN1573895) with a dilution of 1:10.000 for 1 h at rt. The binding was visualized with a-rabbit-IgG-HRP (Sigma, A9169) with a dilution of 1:10.000 and as substrate TMB Plus von KEM EN TEC Diagnostic, Kat-Nr. 4395.

[3] = molecular target: T2, porcine collagen type II (p Col II) (Sus scrofa, UniProt A0A287A2Q7); test: KD-determination by ELISA vs porcine collagen type II; type: binding
T2 construct: porcine collagen type II (p Col II, prepared from porcine eyes); from tissue; host or cells: porcine eyes
Experimental: as §1

[4] = molecular target: T3, human collagen type I (h Col I) (Homo sapiens, UniProt P02452+P08123); test: ELISA specificity vs human collagen type I; type: binding
T3 construct: purchased Sigma C5483-1MG
Experimental: as §1

[5] = molecular target: T4, human collagen type III (Homo sapiens, UniProt P02461); test: ELISA specificity vs human collagen type III; type: binding
T4 construct: purchased Abcam ab7535
T4 sequence (P02461 154-1221 limits assumed): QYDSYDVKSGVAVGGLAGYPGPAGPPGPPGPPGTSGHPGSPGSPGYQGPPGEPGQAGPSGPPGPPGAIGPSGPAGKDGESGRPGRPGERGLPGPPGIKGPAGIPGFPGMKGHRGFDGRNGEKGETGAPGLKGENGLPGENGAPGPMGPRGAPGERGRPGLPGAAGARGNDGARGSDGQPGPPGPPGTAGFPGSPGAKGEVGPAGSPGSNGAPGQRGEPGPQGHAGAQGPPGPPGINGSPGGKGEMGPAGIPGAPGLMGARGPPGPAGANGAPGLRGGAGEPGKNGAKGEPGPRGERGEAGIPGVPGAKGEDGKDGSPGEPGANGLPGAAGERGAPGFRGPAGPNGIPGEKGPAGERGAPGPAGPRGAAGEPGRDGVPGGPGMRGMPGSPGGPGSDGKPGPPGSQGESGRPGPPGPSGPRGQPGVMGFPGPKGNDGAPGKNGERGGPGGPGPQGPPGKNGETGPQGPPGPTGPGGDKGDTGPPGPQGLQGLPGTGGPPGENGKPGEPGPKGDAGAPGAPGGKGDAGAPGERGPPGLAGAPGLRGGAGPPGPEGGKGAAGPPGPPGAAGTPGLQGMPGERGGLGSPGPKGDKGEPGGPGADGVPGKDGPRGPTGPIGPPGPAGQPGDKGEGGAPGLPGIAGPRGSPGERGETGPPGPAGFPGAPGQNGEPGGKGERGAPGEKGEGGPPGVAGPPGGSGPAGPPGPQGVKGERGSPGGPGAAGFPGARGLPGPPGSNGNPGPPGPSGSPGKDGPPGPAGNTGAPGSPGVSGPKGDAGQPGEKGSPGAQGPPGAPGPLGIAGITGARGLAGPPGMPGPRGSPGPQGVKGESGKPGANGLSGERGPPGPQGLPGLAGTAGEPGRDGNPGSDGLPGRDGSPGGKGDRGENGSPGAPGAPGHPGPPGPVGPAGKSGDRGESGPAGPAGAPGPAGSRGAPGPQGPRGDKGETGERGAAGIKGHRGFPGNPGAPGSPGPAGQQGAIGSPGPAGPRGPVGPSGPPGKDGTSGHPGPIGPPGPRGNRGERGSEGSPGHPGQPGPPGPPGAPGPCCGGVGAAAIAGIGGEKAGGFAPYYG
Experimental: as §1

[6] = molecular target: T5, human collagen type V (h Col V) (Homo sapiens, UniProt P05997+P20908); test: ELISA specificity vs human collagen type V; type: binding
T5 construct: purchased Abcam ab7537
Experimental: as §1

[7] = molecular target: T6, 67B89 (domain of fibronectin) (Homo sapiens, UniProt P02751); test: ELISA specificity vs 67B89; type: binding
T6 construct: unrelated fibronectin domain EDB (67B89) could be observed; made in house; host or cells: E. coli
Experimental: as §1

T1 sequence (P02458 182-1241): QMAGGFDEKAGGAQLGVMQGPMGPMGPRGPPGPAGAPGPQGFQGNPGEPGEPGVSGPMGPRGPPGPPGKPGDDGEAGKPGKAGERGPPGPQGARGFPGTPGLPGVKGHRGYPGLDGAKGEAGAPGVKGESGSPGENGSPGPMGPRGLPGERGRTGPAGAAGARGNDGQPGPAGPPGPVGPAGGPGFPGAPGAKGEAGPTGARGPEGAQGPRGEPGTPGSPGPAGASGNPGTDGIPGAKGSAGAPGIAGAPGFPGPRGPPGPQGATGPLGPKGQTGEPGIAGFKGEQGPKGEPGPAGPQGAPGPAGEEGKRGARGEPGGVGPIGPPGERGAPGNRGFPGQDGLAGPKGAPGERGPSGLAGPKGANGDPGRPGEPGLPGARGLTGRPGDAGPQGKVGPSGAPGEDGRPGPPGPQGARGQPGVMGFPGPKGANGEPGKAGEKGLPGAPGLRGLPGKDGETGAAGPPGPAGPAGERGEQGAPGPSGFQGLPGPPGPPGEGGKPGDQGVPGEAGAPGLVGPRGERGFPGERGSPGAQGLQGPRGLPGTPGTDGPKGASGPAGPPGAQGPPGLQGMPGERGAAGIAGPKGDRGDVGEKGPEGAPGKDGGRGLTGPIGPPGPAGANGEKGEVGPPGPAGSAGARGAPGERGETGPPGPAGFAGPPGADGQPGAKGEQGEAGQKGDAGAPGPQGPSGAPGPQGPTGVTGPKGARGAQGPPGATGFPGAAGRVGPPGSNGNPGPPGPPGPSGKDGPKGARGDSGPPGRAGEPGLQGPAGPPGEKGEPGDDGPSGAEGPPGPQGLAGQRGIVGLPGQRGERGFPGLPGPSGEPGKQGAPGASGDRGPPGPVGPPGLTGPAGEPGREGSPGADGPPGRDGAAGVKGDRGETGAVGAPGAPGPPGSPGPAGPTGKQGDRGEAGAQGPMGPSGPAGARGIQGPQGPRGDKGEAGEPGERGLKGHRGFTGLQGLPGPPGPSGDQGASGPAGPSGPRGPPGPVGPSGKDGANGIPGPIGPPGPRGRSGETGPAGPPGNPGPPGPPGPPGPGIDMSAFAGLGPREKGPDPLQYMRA
T2 sequence (A0A287A2Q7 26-1486): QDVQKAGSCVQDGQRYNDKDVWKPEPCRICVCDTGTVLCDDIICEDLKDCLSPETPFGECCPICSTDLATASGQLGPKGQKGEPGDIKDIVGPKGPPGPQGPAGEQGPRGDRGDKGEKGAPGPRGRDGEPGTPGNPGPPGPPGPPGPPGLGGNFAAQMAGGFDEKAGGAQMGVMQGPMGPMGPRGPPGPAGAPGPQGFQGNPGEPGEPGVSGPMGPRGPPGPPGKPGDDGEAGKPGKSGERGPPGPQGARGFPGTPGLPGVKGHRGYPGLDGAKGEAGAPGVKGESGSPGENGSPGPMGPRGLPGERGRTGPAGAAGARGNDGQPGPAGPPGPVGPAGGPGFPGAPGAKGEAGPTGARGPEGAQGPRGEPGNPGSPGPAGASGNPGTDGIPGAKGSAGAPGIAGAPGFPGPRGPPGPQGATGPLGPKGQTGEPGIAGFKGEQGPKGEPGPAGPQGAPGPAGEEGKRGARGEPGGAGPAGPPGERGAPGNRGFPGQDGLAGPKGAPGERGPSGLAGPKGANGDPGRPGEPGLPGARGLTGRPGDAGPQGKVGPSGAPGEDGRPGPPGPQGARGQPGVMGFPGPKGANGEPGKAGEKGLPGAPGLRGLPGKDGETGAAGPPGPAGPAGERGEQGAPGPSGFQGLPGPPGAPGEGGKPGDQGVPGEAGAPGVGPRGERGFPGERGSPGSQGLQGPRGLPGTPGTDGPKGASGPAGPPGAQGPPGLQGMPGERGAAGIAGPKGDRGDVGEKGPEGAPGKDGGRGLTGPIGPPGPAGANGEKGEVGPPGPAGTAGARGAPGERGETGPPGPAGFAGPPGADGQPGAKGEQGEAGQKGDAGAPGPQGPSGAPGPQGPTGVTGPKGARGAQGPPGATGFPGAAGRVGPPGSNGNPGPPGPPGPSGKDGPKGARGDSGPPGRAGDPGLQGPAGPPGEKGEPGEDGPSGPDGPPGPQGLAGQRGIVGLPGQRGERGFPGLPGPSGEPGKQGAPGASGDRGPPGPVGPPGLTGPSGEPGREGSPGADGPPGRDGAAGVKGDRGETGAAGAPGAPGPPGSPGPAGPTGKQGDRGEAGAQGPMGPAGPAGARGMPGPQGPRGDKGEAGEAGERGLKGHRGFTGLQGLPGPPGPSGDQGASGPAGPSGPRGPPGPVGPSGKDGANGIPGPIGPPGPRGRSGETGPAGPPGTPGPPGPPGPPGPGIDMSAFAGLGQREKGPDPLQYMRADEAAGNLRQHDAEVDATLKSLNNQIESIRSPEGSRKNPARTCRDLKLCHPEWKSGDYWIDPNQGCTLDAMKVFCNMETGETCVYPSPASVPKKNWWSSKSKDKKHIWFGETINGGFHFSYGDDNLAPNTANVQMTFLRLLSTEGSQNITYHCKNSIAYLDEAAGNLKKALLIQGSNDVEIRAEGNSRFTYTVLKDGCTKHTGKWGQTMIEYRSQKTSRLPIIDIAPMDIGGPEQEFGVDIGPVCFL
T3 sequence (P02452 162-1218 limits assumed): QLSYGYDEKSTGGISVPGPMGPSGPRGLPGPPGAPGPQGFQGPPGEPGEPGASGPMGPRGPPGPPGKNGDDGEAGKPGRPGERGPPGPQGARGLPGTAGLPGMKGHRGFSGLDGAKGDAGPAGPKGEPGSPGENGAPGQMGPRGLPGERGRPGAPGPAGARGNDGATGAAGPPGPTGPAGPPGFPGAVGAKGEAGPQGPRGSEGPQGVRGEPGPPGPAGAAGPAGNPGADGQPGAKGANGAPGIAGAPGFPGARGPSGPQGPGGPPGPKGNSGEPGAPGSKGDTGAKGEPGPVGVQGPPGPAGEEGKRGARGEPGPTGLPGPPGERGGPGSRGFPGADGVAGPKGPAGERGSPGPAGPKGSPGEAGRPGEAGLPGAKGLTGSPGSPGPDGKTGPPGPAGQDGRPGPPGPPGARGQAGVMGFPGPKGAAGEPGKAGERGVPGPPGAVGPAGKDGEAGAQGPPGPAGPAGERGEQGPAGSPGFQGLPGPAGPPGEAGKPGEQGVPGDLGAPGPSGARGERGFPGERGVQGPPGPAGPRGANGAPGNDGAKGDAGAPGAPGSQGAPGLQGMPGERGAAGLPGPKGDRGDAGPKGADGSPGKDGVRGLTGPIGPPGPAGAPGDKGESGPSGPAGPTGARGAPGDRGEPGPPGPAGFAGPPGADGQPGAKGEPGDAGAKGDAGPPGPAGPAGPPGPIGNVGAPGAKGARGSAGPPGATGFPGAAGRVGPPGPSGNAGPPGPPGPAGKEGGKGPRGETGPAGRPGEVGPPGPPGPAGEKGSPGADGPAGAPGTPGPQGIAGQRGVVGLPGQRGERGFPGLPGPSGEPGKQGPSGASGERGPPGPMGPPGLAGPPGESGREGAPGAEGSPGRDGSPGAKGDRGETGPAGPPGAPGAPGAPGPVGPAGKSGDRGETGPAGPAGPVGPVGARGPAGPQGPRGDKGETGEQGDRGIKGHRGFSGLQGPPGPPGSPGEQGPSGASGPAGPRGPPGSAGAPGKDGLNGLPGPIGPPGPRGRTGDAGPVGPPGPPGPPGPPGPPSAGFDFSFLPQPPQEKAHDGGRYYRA
T3 sequence (P08123 80-1119 limits assumed): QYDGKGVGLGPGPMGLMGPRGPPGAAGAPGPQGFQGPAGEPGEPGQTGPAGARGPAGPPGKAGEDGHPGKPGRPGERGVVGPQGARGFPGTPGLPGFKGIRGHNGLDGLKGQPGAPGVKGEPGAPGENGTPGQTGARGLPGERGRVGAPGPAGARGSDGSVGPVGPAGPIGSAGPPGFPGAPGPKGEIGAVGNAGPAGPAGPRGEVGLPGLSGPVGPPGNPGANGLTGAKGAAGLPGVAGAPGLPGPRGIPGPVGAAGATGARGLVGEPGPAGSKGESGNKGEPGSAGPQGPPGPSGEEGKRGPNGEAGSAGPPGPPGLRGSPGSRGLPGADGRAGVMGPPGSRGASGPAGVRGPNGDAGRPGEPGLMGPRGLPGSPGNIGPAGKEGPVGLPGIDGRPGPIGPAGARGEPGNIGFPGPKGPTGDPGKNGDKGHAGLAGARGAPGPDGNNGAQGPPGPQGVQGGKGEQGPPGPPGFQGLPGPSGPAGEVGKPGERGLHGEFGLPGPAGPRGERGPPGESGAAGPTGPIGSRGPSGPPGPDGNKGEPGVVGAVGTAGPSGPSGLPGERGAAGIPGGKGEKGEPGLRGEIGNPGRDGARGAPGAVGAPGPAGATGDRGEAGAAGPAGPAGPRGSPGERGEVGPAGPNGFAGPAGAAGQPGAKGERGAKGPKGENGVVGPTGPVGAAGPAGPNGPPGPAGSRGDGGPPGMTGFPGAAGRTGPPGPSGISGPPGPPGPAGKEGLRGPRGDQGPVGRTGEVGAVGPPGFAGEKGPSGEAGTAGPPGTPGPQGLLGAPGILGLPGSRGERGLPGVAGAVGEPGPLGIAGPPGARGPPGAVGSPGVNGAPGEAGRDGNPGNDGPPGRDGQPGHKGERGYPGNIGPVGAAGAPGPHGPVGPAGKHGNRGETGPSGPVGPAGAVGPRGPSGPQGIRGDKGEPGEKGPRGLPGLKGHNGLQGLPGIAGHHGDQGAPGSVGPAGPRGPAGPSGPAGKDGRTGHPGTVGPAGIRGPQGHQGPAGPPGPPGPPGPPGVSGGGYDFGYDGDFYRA
T6 sequence (P02751 1089-1540 limits assumed): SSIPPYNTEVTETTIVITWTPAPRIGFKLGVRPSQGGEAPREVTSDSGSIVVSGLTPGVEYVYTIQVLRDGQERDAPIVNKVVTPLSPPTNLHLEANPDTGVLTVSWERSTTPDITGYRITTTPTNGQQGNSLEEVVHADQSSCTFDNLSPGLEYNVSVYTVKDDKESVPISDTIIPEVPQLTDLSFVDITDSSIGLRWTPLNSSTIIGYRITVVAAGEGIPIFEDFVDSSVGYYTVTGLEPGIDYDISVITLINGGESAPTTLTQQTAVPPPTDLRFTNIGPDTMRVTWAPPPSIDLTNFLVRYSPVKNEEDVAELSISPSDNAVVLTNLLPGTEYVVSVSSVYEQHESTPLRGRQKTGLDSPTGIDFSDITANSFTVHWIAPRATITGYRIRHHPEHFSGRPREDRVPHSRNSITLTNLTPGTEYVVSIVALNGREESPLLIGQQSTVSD

B1: CID 210970: hetero-dimeric binding protein comprising SEQ ID NO: 14 (protein)
chain: IAAKFDEAQWAAFLEIVHLPNLTEEQRLKFIYSLRDDPSVSLEVLGEAQKLNDSQAPKIAAKFDEAQQAADKEILHLPNLTEQQRNYFRQWLRDDPSVSLEVLGHAQLLNDSQAPK
modifications: Col2 binding protein (dimer) 210970
Solubility Soluble expression [1]: 90%

B2: CID 210971: heterodimer with SEQ ID NO: 14 as N-terminal monomer (protein)
chain: IAAKFDEAQWAAFLEIVHLPNLTEEQRLKFRYSLRDDPSVSLEVLGEAQKLNDSQAPKIAAKFDEAQQAADKEILHLPNLTEQQRNYFRQWLRDDPSVSLEVLGHAQLLNDSQAPK
modifications: Col2 binding protein (dimer) 210971
Solubility Soluble expression [1]: 60%

B3: CID 210972: heterodimer with SEQ ID NO: 14 as C-terminal monomer (protein)
chain: IAAKFDEAQWAADLEIVHLPNLTEEQRLKFIYSLRDDPSVSLEVLGEAQKLNDSQAPKIAAKFDEAQQAADKEILHLPNLTEQQRNYFRQWLRDDPSVSLEVLGHAQLLNDSQAPK
modifications: Col2 binding protein (dimer) 210972
Solubility Soluble expression [1]: 70%

B4: CID 210973: heterodimer with SEQ ID NO: 14 as C-terminal monomer (protein)
chain: IAAKFDEAQWAADLEIVHLPNLTEEQRLKFRYSLRDDPSVSLEVLGEAQKLNDSQAPKIAAKFDEAQQAADKEILHLPNLTEQQRNYFRQWLRDDPSVSLEVLGHAQLLNDSQAPK
modifications: Col2 binding protein (dimer) 210973
Solubility Soluble expression [1]: 90%

binding affinity (KD) to human type II collagen (ELISA) [2]: 220 nM
specific binding vs porcine type II collagen (ELISA) [3]: 0.11 µM
B5: CID 209130: hetero-dimeric binding protein comprising SEQ ID NO: 4 and SEQ ID NO: 11 linked head-to-tail (protein)
chain: IAAKFDEAQIAAFWEIYHLPNLTEEQRTAFIWSLYDDPSVSLEVLGEAQKLNDSQAPKIAAKFDEAQQAAFYEILHLPNLTEQQRNYFIQWLRDDPSVSPTVLGTAQQLNDSQAPK
modifications: Col2 binding protein (dimer) 209130 (210484)
Solubility Soluble expression [1]: 90%

binding affinity (KD) to human type II collagen (ELISA) [2]: 450 nM
specific binding vs porcine type II collagen (ELISA) [3]: 0.81 µM
B6: CID 211138: dimeric Type II collagen binding protein of SEQ ID NO: 34 (protein)
chain: IAAKFDEAQYAAFYEIWHLPNLTEEQREAFIASLADDPSVSLEVLGEAQKLNDSQAPKIAAKFDEAQQAAFYEILHLPNLTEQQRNYFIQWLRDDPSVSPTVLGTAQQLNDSQAPK
modifications: Col2 binding protein (dimer) 211138
Solubility Soluble expression [1]: 95%

binding affinity (KD) to type II collagen by ELISA, in words ([2]; type II collagen, tetramers: of different species): 1-2-digit nM
binding to type I collagen (ELISA) [4]: No unspecific binding
binding to type III collagen (ELISA) [5]: No unspecific binding
binding to type V collagen (ELISA) [6]: No unspecific binding
binding to domain of fibronectin (67B89) (ELISA) [7]: No unspecific binding
B7: CID 212705: dimer of SEQ ID NO: 15 (protein)
chain: IAAKFDEAQQAADKEILHLPNLTEQQRNYFRQWLRDDPSVSPTVLGTAQQLNDSQAPKIAAKFDEAQQAADKEILHLPNLTEQQRNYFRQWLRDDPSVSPTVLGTAQQLNDSQAPKSAWSHPQFEK
modifications: Col2 binding protein (dimer of SEQ ID NO: 15) (CID212705)
Solubility Soluble expression [1]: 100%

Each block holds one molecule with its values, some of them ahead of it.
